# Hit rate of the full screen: of about 310,000 compounds, about 11,000 (3.5%) were called active. This list was built around the results that the source calls inconclusive (neither active nor inactive); the mix of calls is not that of the screen. The call rests on the fitted dose curve; in most records, active means well fitted inhibition curve with a large enough effect; inconclusive means small, poorly fitted or top-dose-only effect, or effect the other way; inactive means flat fitted curve, though single readings scatter. No potency is given beside an inconclusive call; the fits are too rough.
# Test: VP16 counterscreen qHTS for inhibitors of ROR gamma transcriptional activity;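 further: Gal4-VP16 expression switched on by copper sulfate through the metallothionein promoter; nearly all actives have a fitted effect of over 50% in size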
# Settings: Drosophila S2 Gal4-VP16 UAS-luciferase, luminescence, 20 h; series mostly up to 53.6 µM
# Potency means the concentration at half of the fitted maximal effect; tags describe the fitted curve by direction and shape.
row,Structure (SMILES),Potency
1,CCOc1ccc(OCc2ccc(C(=O)NN)o2)cc1,"inconclusive [activator, single point]"
2,CCN(c1ccc(NC(=O)COC(=O)CCc2nc3ccccc3n2-c2ccccc2)cc1)C(C)C,"inconclusive [inhibitor, single point]"
3,N#CC1=C(N)C2=CCCC[C@H]2[C@H](c2ccc(Br)cc2)C1(C#N)C#N,active: 5.01 µM
4,COc1cccc(-n2nnc3c(=O)n(Cc4c(F)cccc4Cl)cnc32)c1,"inconclusive [activator, single point]"
5,Oc1ccc(C2=NNC(=NCc3ccc4c(c3)OCO4)SC2)c(O)c1,"inconclusive [inhibitor, single point]"
6,Cc1cc(C(=O)Nc2ncn[nH]2)ccc1[N+](=O)[O-],"inconclusive [inhibitor, single point]"
7,COc1ccc(-c2cc(C#N)nc(N3CCNCC3)n2)cc1,"inconclusive [inhibitor, single point]"
8,O=C1[C@@H]2Cc3c([nH]c4ccccc34)C(c3ccccc3)N2C(=O)CN1C1CCN(Cc2ccccc2)CC1 (stereo not given in full),"inconclusive [inhibitor, single point]"
9,CN(CC(=O)Nc1ccc(Cl)cc1)c1ccc(S(=O)(=O)N2CCCCC2)cc1[N+](=O)[O-],"inconclusive [inhibitor, single point]"
10,Cc1[nH]n(-c2ccc(Cl)cc2)c(=O)c1/C=N/n1c(C)nc2ccccc2c1=O,"inconclusive [inhibitor, single point]"
11,CC(C)c1ccc2nc(N)sc2c1,"inconclusive [activator, single point]"
12,Cc1ccc(C)c(Nc2nc(N)c3ccccc3n2)c1,"inconclusive [inhibitor, single point]"
13,Cc1cc(C)c(S(=O)(=O)N/N=C/c2ccc([N+](=O)[O-])o2)c(C)c1,active: 20 µM
14,O=C1/C(=C/c2ccc(O)c(O)c2)Oc2ccccc21,"inconclusive [inhibitor, single point]"
15,CCc1nnc(N/N=C/c2ccccc2Cl)n1N,"inconclusive [inhibitor, single point]"
16,CCc1ccc2[nH]c(=O)c(CN(CCN3CCCC3)C(=O)NC3CCCCC3)cc2c1,"inconclusive [inhibitor, single point]"
17,C=CCc1c(C)nc(-c2ccccc2)nc1N/N=C/c1ccccc1,"inconclusive [inhibitor, single point]"
18,Cc1cc(C(=O)N/N=C\c2cc(C(C)(C)C)c(O)c(C(C)(C)C)c2)n[nH]1,active: 3.55 µM
19,O=C(CSc1ccccc1)N1CCCC(Nc2ccccc2)C1 (stereo not given),"inconclusive [inhibitor, single point]"
20,O=C(NCc1ccccc1)C(c1ccco1)N(C(=O)c1csnn1)c1ccccc1F (stereo not given),"inconclusive [activator, single point]"
21,N#Cc1c(-c2ccc(Cl)cc2)c2c([nH]c1=O)-c1ccccc1OC2,inactive
22,O=C(NNc1cc(C(F)(F)F)nc2ccccc12)Nc1cccc(Cl)c1,inactive
23,Cc1nc(-c2ccc(NC(=O)C3CCCCC3)cc2)cs1,"inconclusive [inhibitor, full curve]"
24,COc1cc(C(=O)N/N=C/c2ccsc2C)cc(OC)c1OC,"inconclusive [inhibitor, single point]"

row,Structure (SMILES),Potency
1,COc1ccccc1Nc1nc(NCCCN(C)C)nc(N)c1[N+](=O)[O-],active: 15.8 µM
2,COc1ccc(CCNCC(O)Cn2c3ccccc3c3ccccc32)cc1OC (stereo not given),"inconclusive [inhibitor, single point]"
3,COc1cccc(-c2nc(CS(=O)CC(=O)O)c(C)o2)c1 (stereo not given),"inconclusive [inhibitor, partial curve]"
4,CN(C)c1ccc(-c2cc(NCc3ccccc3)ncn2)cc1,"inconclusive [inhibitor, partial curve]"
5,Cc1cccc2cc(C#N)c(NCc3ccccc3)nc12,active: 7.08 µM
6,COC(=O)C1CCCCN1C(=O)c1cc(COc2cccc3cnccc23)on1 (stereo not given),"inconclusive [inhibitor, full curve, poor fit]"
7,COc1cccc(C(=O)NC2=NCCS2)c1,"inconclusive [inhibitor, single point]"
8,CCn1c2ccccc2c2cc(NC(=O)CSc3nnc(-c4ccc(OC)cc4)n3N)ccc21,"inconclusive [inhibitor, single point]"
9,CC(=O)c1ccc(OCCOc2ccc(C#N)cc2)cc1,inactive
10,CCCCS(=O)(=O)/C=C\C=C/S(=O)(=O)CCCC,active: 0.891 µM
11,Oc1ccccc1CNc1cccc2cccnc12,"inconclusive [inhibitor, partial curve, poor fit]"
12,COc1ccc(C(=O)NC(=S)Nc2ccc(CN3CCOCC3)cc2)cc1Cl,"inconclusive [inhibitor, single point]"
13,CSc1nnc(-c2ccc([N+](=O)[O-])cc2)o1,"inconclusive [activator, single point]"
14,CCCCCC(=O)NC(=S)Nc1ccc(NC(=O)c2ccco2)cc1,"inconclusive [inhibitor, single point]"
15,N#C/C(=C/c1ccco1)c1nc2ccccc2s1,active: 5.62 µM
16,Cc1ccccc1-n1c(SCC(=O)c2c(N)n(C)c(=O)n(C)c2=O)nnc1-c1cccnc1,inactive
17,Cc1ccc(C)c(OCC(=O)N/N=C/c2c(C)nn(-c3ccccc3)c2Cl)c1C,"inconclusive [inhibitor, single point]"
18,C/C(=N/NC(=O)C(O)(c1ccccc1)c1ccccc1)c1ccc([N+](=O)[O-])o1,"inconclusive [inhibitor, single point]"
19,Cc1ccc(C(=O)CSc2nnc(-c3ccco3)n2C)cc1,"inconclusive [activator, single point]"
20,CC(=O)Nc1ccc(NC(=S)NC(=O)c2ccc(C(C)(C)C)cc2)cc1,inactive
21,N=c1c(C(=O)NCCN2CCOCC2)cc2c(=O)n3ccccc3nc2n1Cc1ccc(F)cc1,inactive
22,Fc1ccc(NC(=S)NCc2ccccn2)cc1,"inconclusive [inhibitor, single point]"
23,CCN(CC)c1ccc(CNc2ccc3c(c2)ncn3C(C)(C)C)cc1,inactive
24,CCOc1[nH]n(-c2ccccc2)c(=O)c1C=Nc1ccccc1,inactive

row,Structure (SMILES),Potency
1,Nc1c(S(=O)(=O)c2cccs2)c2nc3ccccc3nc2n1CCc1ccccc1,"inconclusive [inhibitor, partial curve]"
2,CN(CC(=O)Nc1ccc(S(=O)(=O)N2CCCC2)cc1)Cc1ccc(Cl)cc1,inactive
3,CCC(C)c1cc([N+](=O)[O-])cc([N+](=O)[O-])c1OC(=O)OC(C)C (stereo not given),"inconclusive [inhibitor, single point]"
4,CCOC(=O)c1cc(C(=O)OCC)cc(-n2cc(O)c(C(=O)OCC)n2)c1,active: 11.2 µM
5,Cc1cc(N2CCN(C)CC2)nc2ccc(NC(=S)NCCCN3CCc4ccccc4C3)cc12,inactive
6,CCc1cc(=O)oc2c3c(cc(OCC(=O)NCc4cccnc4)c12)OC(C)(C)CC3,"inconclusive [inhibitor, partial curve, poor fit]"
7,COc1ccc(C(=O)Cn2c(Cl)nc3c2c(=O)n(C)c(=O)n3C)cc1,inactive
8,O=C(O)c1ccc(N/N=C/c2ccc3ncccc3c2)cc1,active: 0.398 µM
9,O=C(NCc1ccccc1)Nc1cccn(Cc2ccc(F)cc2)c1=O,"inconclusive [activator, single point]"
10,COCc1nn2c(N)c(C#N)cnc2c1-c1ccccc1,"inconclusive [inhibitor, single point]"
11,COc1ccccc1N/C(N)=N/c1nc(CSc2ccc(C)cc2)cc(=O)[nH]1,active: 7.94 µM
12,O=[N+]([O-])c1ccc(C23CC4CC(CC(O)(C4)C2)C3)cc1,"inconclusive [inhibitor, full curve, poor fit]"
13,CC/C(=N\NC(=O)c1ccc(-c2ccccc2)cc1)C12CC3CC(CC(C3)C1)C2,"inconclusive [inhibitor, single point]"
14,CCOC(=O)C1(Cc2ccccc2Cl)CCN(C(=O)CCn2ccnc2C)CC1,"inconclusive [activator, full curve]"
15,Cc1nc2ccc(S(=O)(=O)Nc3cccc(-c4nc5cccnc5s4)c3)cc2s1,"inconclusive [inhibitor, single point]"
16,CCC1SC(=NC(=O)c2ccc(Cl)c(Cl)c2)NC1=O (stereo not given),"inconclusive [inhibitor, single point]"
17,O=c1c2[nH]c3ccc(F)cc3c2ncn1CCCn1ccnc1,inactive
18,COCCN(C(=S)Nc1cccc(Cl)c1C)C(C)c1ccco1 (stereo not given),"inconclusive [inhibitor, single point]"
19,O=C(CNC(=S)NC(=O)c1ccc(Br)o1)c1ccccc1,"inconclusive [inhibitor, single point]"
20,O=C1C(=O)N(CCN2CCOCC2)C(c2ccc([N+](=O)[O-])cc2)/C1=C(/O)c1ccc2c(c1)OCO2 (stereo not given),active: 11.2 µM
21,COc1cccc(Cn2c(NCc3cccnc3)nc3c2c(=O)n(C)c(=O)n3C)c1,"inconclusive [inhibitor, single point]"
22,Cc1ccsc1/C=C1\CCc2ccccc2C1=O,active: 11.2 µM

# — PubChem BioAssay AID2546 (National Center for Advancing Translational Sciences (NCATS), 2010)
